The values below come from paper PMC4336329 (PLoS ONE, 2015).

About 14,000 (4.5%) of roughly 310,000 compounds showed an effect of 50% or more. Effects have a minus sign here. The list shows a part of the results.
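Note: peak tail current of the secondary pulse compared with the same well before compound.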

The target in this test is human ether-à-go-go-related gene (hERG) potassium channel (human, UniProt Q12809). Description: primary screen, population patch clamp on CHO cells stably expressing hERG.
human ether-à-go-go-related gene (hERG) potassium channel, sequence (Q12809 whole entry, looked up): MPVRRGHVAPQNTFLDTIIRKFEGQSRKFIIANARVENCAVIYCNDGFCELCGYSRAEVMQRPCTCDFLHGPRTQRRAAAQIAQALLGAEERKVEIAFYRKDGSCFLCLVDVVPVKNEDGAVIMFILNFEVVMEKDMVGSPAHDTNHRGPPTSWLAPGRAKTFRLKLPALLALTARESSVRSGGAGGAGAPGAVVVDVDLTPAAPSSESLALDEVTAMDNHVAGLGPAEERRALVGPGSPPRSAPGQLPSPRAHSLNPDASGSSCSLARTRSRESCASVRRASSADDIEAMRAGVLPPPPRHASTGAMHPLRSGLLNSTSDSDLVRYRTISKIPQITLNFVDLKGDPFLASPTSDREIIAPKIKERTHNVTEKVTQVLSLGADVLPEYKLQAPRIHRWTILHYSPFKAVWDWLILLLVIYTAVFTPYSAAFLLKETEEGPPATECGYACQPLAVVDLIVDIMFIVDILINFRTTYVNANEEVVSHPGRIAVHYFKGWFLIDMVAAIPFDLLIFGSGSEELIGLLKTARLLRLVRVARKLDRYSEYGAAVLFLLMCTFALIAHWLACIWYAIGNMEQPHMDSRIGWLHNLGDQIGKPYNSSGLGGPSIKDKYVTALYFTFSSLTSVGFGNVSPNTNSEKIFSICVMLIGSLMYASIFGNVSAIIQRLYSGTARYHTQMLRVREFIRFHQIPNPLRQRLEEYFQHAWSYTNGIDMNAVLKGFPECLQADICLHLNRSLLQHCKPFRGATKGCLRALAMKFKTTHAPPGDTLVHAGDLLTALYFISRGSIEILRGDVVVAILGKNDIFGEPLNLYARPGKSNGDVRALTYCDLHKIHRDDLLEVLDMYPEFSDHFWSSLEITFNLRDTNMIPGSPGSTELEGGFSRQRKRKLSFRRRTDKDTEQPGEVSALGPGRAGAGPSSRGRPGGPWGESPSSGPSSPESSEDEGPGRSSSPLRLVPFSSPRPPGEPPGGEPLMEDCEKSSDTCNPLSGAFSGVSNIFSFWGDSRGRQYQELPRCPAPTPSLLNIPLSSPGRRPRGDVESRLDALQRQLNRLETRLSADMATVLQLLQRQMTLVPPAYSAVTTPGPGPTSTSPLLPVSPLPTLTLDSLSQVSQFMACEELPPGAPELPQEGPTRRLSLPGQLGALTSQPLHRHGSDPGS
For the compound `Cc1nc2ccccn2c1CN(C)C(=O)C1CCC(=O)N(CCc2cccc(F)c2)C1` (stereo not drawn), the “hERG current change (%, negative = inhibition) at 10uM” value is recorded as -75.6%.
For the compound `Cc1cc(OCC(=O)N2CCN(c3ccccc3)CC2)c2c(C)cc(=O)oc2c1`, the “hERG current change (%, negative = inhibition) at 10uM” value turned out to be 16.1%.
`COCCNC(=O)C1CC(=O)N(CCc2ccccc2)C1` (stereo not drawn): the “hERG current change (%, negative = inhibition) at 10uM” value is on record as 21.2%.
The result for `CO/N=C/c1ccc(N2CCN(C(=O)c3ccc(C)cc3)CC2)c([N+](=O)[O-])c1` reads -74.9%; that for `Cn1c2ccccc2c2cc(/C=C(\NC(=O)c3ccccc3)C(=O)O)ccc21`, 9.22%; that for `CC(=O)N1CCc2c(sc(NC(=O)CN3C(=O)c4ccccc4C3=O)c2C(N)=O)C1`, 5.3%.
With `CC(=O)Nc1ccc(NC(=O)COc2ccc3c(c2)CCC3)cc1`, the “hERG current change (%, negative = inhibition) at 10uM” value is on record as 24.5%.
Turning to `CCN(CC)C(=O)CSc1nc(O)cc(=O)n1C`, the “hERG current change (%, negative = inhibition) at 10uM” value is 8.81%.
The same measure for `CC1(C)N=C2C(=[N+]1[O-])CCC/C2=N\O`: 11.6%; for `Cc1cccc2cc(CN(CCCN(C)C)C(=S)NCCc3ccccc3)c(=O)[nH]c12`: -72%.
As to `N=C1/C(=C/c2ccc(-c3cccc(C(=O)O)c3)o2)C(=O)N=C2SC=C(c3ccccc3)N12`, the “hERG current change (%, negative = inhibition) at 10uM” value stood at 29.9%.
The same measure for `Cc1nn(-c2ccccc2)c(C)c1/C=N/NC(=O)CSc1nnc(SCc2cccc3ccccc23)s1`: 6.33%; for `O=C(NCc1ccccc1F)c1cccc(S(=O)(=O)NCc2ccccc2)c1`: -3.38%.
The result for `O=C(NC1=NCCS1)c1ccccc1Cl` reads 13.4%; that for `CC(C)(C)c1ccc(OCC(=O)Nc2ccc(-c3nc4cccnc4o3)cc2)cc1`, 9.31%.
The result for `Cc1cccc(NC(=O)CNC(=O)CCNC(=O)c2ccc(C(C)(C)C)cc2)c1C` reads -6.07%; that for `O=C(NCC(c1ccco1)N1CCCC1)c1cc2cc(Cl)ccc2o1` (stereo not drawn), -67.7%; that for `Cc1ccc(S(=O)(=O)CCC(=O)NCc2ccc(Cl)cc2)cc1`, -3.96%.
With `CCCC(=O)Nc1cccc(C(=O)Nc2nccs2)c1`, the “hERG current change (%, negative = inhibition) at 10uM” value is on record as -15.4%.
The result for `COc1ccc(/C=N/NC(=O)c2ccc3nc[nH]c3c2)c(OC)c1` reads 25.5%; that for `O=C(NCc1cccnc1)c1cc(S(=O)(=O)N2CCCCC2)ccc1Cl`, 16.7%; that for `Cc1ccc(CNC(=O)Cc2nc3nc(C)cc(C)n3n2)cc1`, 1.08%.
For `CCc1ccc(CN2CCN(C(=O)c3cccc(OC)c3OC)CC2)cc1.O=C(O)C(=O)O`, the “hERG current change (%, negative = inhibition) at 10uM” value is listed as -10.3%.
The same measure for `CCC1(c2ccc(Cl)cc2)NC(=S)N(c2ccccc2)N1` (stereo not drawn): 16.7%; for `Cc1ccc2c(c1)c(N=NC(N)=O)c(O)n2C`: 12.7%; for `COc1cc([N+](=O)[O-])ccc1Nc1nc(C)cc(C)n1.Cl`: 14.5%.
The same measure for `CCCCn1c(C)c(C(=O)OCC)c2c(CN3CCOCC3)c(O)ccc21`: -55.9%; for `CC12CCC(=O)N1C(C(=O)OCc1c(Cl)cccc1Cl)CS2` (stereo not drawn): -4.54%.
Turning to `CCn1cc(S(=O)(=O)c2ccc(C)cc2)c(=O)c2cc(F)c(N3CCN(C)CC3)cc21`, the “hERG current change (%, negative = inhibition) at 10uM” value was -20.4%.
The result for `Cc1ccc(C(=O)NN2C(=O)C3C4C=CC(C4)[C@@H]3C2=O)cc1` (stereo partly drawn) reads -0.442%; that for `O=C(c1ccc(Cl)cc1)C1CCN(C(=O)C2CC2)CC1`, -10.7%; that for `Cn1nc(CC(=O)NCc2ccc(F)cc2)c2ccccc2c1=O`, -11.4%.
For `CC(=O)C1=C(O)C(=O)N(c2ccccn2)C1c1ccc(C)cc1` (stereo not drawn), the “hERG current change (%, negative = inhibition) at 10uM” value came to 10.8%.
The same measure for `CCOC(=O)c1cn(Cc2ccccc2)nc1-c1ccccc1`: -8.37%; for `Brc1ccc2nc(CSc3ncn[nH]3)cn2c1`: -13.1%; for `COc1ccc(S(=O)(=O)NC2CCCCCC2)cc1C(N)=O`: 10.6%.
The same measure for `COc1cccc(CNC(=O)N2CCN(S(=O)(=O)c3ccc(Cl)cc3)CC2)c1`: 11.6%; for `O=C(NC(=S)Nc1ccccc1Br)c1ccco1`: 21.9%.
The result for `O=C(CSc1n[nH]c(-c2ccncc2)n1)Nc1ccc(Cl)c(C(=O)O)c1` reads 15.5%; that for `CC(c1ccon1)N(C)Cc1c(C(=O)N(C)Cc2ccccc2)nc2ccccn12` (stereo not drawn), -9.17%.
In the case of `COc1ccc(COC(=O)c2ccc3c(=O)n4c(nc3c2)CCC4)cc1F`, the “hERG current change (%, negative = inhibition) at 10uM” value is reported as -2.66%.
The same measure for `O=C(O)C(=O)O.Oc1ccccc1CN(CCc1ccccc1)Cc1ccccc1`: 20.1%; for `Cc1ccc(OCC(=O)N2CCN(S(=O)(=O)c3ccccc3)CC2)c([N+](=O)[O-])n1`: -45.8%.
The same measure for `Cc1ccc2c(c1)N(CC(=O)N(Cc1ccc3c(c1)OCO3)CC1CCCO1)C(=O)C(C)O2` (stereo not drawn): -37%.
`COc1ccc(NS(=O)(=O)c2cccc(C(=O)N/N=C/c3cn(-c4ccccc4)nc3-c3ccc(OC)cc3)c2)cc1`: the “hERG current change (%, negative = inhibition) at 10uM” value is -11.3%.
The same measure for `Cc1ccc(CNC(=S)Nc2ccc(NS(=O)(=O)c3ccc(C)cc3)cc2)cc1`: -4.96%; for `O=C(Nc1ccc(Cl)cn1)c1cccc(OCc2ccccc2)c1`: 1.34%.
The result for `CCOC(=O)CN(C(=O)CNC(=O)c1ccco1)C(C(=O)NC1CCCCC1)c1cccs1` (stereo not drawn) reads 9.22%.
For `O=C(O)CCCNC(=O)/C(=C\c1ccc(Cl)cc1)NC(=O)c1ccc(Br)cc1`, the “hERG current change (%, negative = inhibition) at 10uM” value was 12.3%.
The result for `COCCNC(=O)c1c(C)cc(C)cc1C` reads 10.1%; that for `Cc1ccc(S(=O)(=O)Nc2cccc3ncccc23)cc1`, -13.4%.
Regarding `Cc1ccc(O)c(C(=O)c2cnn(-c3ccccc3)c2)c1`, the “hERG current change (%, negative = inhibition) at 10uM” value worked out at 7.24%.
The result for `Cc1ccccc1Nc1nnc(SCC(=O)NC(=O)Nc2ccc3c(c2)OCCO3)s1` reads -6.1%.
The same measure for `O=C(O)C1C2C=CC(C2)C1C(=O)NC1CCS(=O)(=O)C1` (stereo not drawn): 13.3%; for `COC(=O)[C@]1(C)CCC[C@@]2(C)C3CC[C@@]4(C)C[C@]3(CCC21)CC(=O)N4Cc1ccc(OC)cc1` (stereo partly drawn): 7.82%.
For `COC(=O)c1c(N)c(C#N)c2n1CCCCC2`, the “hERG current change (%, negative = inhibition) at 10uM” value is reported as -2.6%.
On to `COc1ccc(/C=N/NC(=O)c2ccc(Cn3cc([N+](=O)[O-])cn3)o2)c(OC)c1C`, for which the “hERG current change (%, negative = inhibition) at 10uM” value is reported as 24.1%.
The same measure for `CCC(=O)Nc1nc2c(OC)ccc(C)c2s1`: 3.79%; for `COc1ccc(C(=O)C2CCCN(Cc3ccc(NC(C)=O)cc3)C2)cc1OC` (stereo not drawn): -21.1%; for `CN1N=C2c3ccccc3CCCC2C1c1ccc(F)cc1` (stereo not drawn): 0.747%.
The result for `CCc1nn(CC(=O)NCc2cccnc2)c(=O)c2cc3occc3n12` reads -7.02%; that for `Cc1ccc(/C=N/N=C2\SCC(=O)N2CC2CC2)cc1`, 6.26%; that for `COc1ccc(OC)c(NC(=O)Nc2c(O)ccc3ccccc23)c1`, -20.7%.
The result for `CCOC(=O)c1csc(-c2snnc2C)n1` reads 0.458%.
Consider `CCCn1c2ccccc2c2cnn(CC(=O)NC3CCN(Cc4ccccc4)CC3)c(=O)c21`, for which the “hERG current change (%, negative = inhibition) at 10uM” value is on record as -55.1%.
The result for `CCOC(=O)N1CCN(C(=S)NC(=O)/C=C/c2ccc(C)cc2)CC1` reads -0.681%; that for `OCC#CCSc1nnc(-c2ccccc2Br)o1`, 4.35%; that for `CCOC(=O)C(Cc1ccccc1)NC(=O)CCc1c(C)nc2ncnn2c1C` (stereo not drawn), 7.28%.
The result for `Cc1ccc(CSCCNS(=O)(=O)c2ccccc2)cc1` reads -35.8%; that for `CN(CCc1ccccn1)C(=O)CCC1CCCN(C(=O)CN2CCCCCC2)C1` (stereo not drawn), 10.1%.
The result for `Cc1cc(Br)ccc1NC(=S)NCCc1ccccc1` reads 5.4%; that for `Cc1ccc(N=Cc2cc3c(cc2O)OC(N)=C(C#N)C3c2ccccc2)cc1` (stereo not drawn), -0.368%.
On to `CCOC(=O)N1CCN(C(=O)CN(c2ccc(OCC)cc2)S(C)(=O)=O)CC1`, for which the “hERG current change (%, negative = inhibition) at 10uM” value is -13.4%.
The result for `Cc1cc(Cl)c2oc(C(=O)NC(C)c3ccncn3)c(C)c2c1` (stereo not drawn) reads -11.2%.
On to `O=C(c1ccccc1)N1CCC(c2nc(-c3ccc(S(=O)(=O)NCC4CCCO4)cc3)no2)CC1` (stereo not drawn), for which the “hERG current change (%, negative = inhibition) at 10uM” value is given as -3.97%.
`O=C(c1cccs1)N1CCN(c2ccc(F)cc2)CC1`: the “hERG current change (%, negative = inhibition) at 10uM” value was -9.63%.
The same measure for `COc1ccc(OC)c(NC(=O)NCCN2CCN(c3ccccc3)CC2)c1`: -17.6%.
The result for `O=C1CSC(=S)N1c1cccc(O)c1` reads 4.95%; that for `COc1ccc2c(c1OC)C(=O)N(c1cccc(NC(C)=O)c1)C2`, 19.6%; that for `COc1ccc(Oc2ccccc2C#N)cc1`, 1.78%.
The result for `O=C1CC(N2CCN(c3ccccc3)CC2)C(=O)N1c1ccc2c(c1)OCO2` (stereo not drawn) reads 22.4%; that for `Cc1cccc(OCC(=O)N(Cc2nnc(-c3ccccc3Cl)o2)C2CC2)c1`, -54.2%; that for `NC(=O)CN1CCN(c2ccccc2F)CC1`, 4.12%.
In the case of `COCC(=O)Nc1c(I)c(C(=O)NCC(O)CO)c(I)c(C(=O)N(C)CC(O)CO)c1I` (stereo not drawn), the “hERG current change (%, negative = inhibition) at 10uM” value amounted to 19.4%.
Regarding `COc1ccc(N2CCN(c3nc4cc(C)ccc4cc3C=O)CC2)cc1`, the “hERG current change (%, negative = inhibition) at 10uM” value was determined as 16.6%.
Regarding `CC(C)Oc1ccccc1-c1cc(C(=O)N/N=C/c2cccnc2)c2ccccc2n1`, the “hERG current change (%, negative = inhibition) at 10uM” value was -51.1%.
As for `C=C(C)c1cccc(C(C)(C)NC(=O)NC2CCCC2)c1`, the “hERG current change (%, negative = inhibition) at 10uM” value is 15.1%.
